Laboratory results from PubChem BioAssay AID485341 (National Center for Advancing Translational Sciences (NCATS), 2010).
Hit rate of the full screen: of about 330,000 compounds, about 1,700 (0.52%) were called active. The inconclusive results got no clear call from the source; some entries with a clear call stand among them for comparison. Calls come from the whole dose curve; as a rule, active = well fitted inhibition curve with a large enough effect; inconclusive = small, poorly fitted or top-dose-only effect; inactive = no such curve, though single readings can be large or run the other way. Where the call is inconclusive, the potency comes from a doubtful curve fit.

Each molecule was assayed against Beta-lactamase (Escherichia coli (strain K12)) (UniProt P00811) (assay: qHTS Inhibitors of AmpC Beta-Lactamase (assay without detergent)). Details: AmpC nitrocefin hydrolysis, absorbance 480 nm, 0.0001% Triton; activity change, negative = inhibition: at 57.1 µM (top of the series) unless noted.
Sequence of UniProt P00811 (P00811 whole entry, looked up): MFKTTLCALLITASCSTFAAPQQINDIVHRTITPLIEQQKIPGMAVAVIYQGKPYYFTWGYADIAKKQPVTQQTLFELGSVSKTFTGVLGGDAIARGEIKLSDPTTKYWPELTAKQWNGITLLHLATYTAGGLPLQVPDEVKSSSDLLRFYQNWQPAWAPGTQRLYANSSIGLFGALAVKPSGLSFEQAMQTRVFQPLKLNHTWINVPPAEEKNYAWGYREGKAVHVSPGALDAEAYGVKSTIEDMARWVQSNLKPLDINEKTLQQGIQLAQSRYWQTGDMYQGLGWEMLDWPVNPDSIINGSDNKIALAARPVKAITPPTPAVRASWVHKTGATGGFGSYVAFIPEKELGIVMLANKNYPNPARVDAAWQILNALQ
In short: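 AmpC (5.3 nM in the dispensed reagent) in 20 mM phosphate pH 7.0 with 0.01% (detergent screen) or 0.0001% Triton X-100 was preincubated with compounds for 15 min at room temperature. Nitrocefin was then added from an 800 uM solution, and hydrolysis was followed at 480 nm.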
Note: nearly all actives have a fitted effect of over 20% in size.
Potency is the fitted concentration of half-maximal effect; tags give direction and shape of the fitted curve.
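Throughout, for activity change, negative = inhibition: plate controls were no compound for no effect and no enzyme for full effect.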

| Structure (SMILES) | activity change, negative = inhibition | Potency |
| --- | --- | --- |
| COc1ccc(N(CC(=O)NCc2ccc(Cl)cc2)S(=O)(=O)c2ccccc2[N+](=O)[O-])c(OC)c1 | inactive: -23.9% | – |
| O=S(=O)(Nc1cccc(-c2cn3cccnc3n2)c1)c1ccccc1 | – | inconclusive: 25.1 µM [inhibitor, single point] |
| CCOC(=O)N1CCN(CC(O)COc2ccccc2C(C)C)CC1 (stereo unspecified) | inactive: 133% | – |
| O=C(c1cnc2n(c1=O)CCS2)N1CCN(c2ccccc2F)CC1 | – | inconclusive: 100 µM [inhibitor, partial curve, poor fit] |
| C=CCN(C(=O)C1CSC2(C)CCC(=O)N12)c1nc(-c2ccccc2)cs1 (stereo unspecified) | – | inconclusive: 39.8 µM [inhibitor, single point] |
| NC(=O)c1ccc(NC(=O)COC(=O)c2c3c(nc4ccccc24)/C(=C\c2cccs2)CCC3)cc1 | – | active: 3.16 µM |
| COc1ccc(CC(C)N2CCN(Cc3ccccc3)CC2)c(OC)c1 (stereo unspecified) | – | inconclusive: 7.08 µM [inhibitor, single point] |
| CC1(C)Oc2ccc3ccc(=O)oc3c2-c2cnoc21 | – | inconclusive: 2.82 µM [inhibitor, full curve, poor fit] |
| O=C(NN1C(=O)/C(=C/C=C/c2ccco2)SC1=S)c1ccccc1O | – | active: 15.8 µM |
| CC(C)c1ccc(S(=O)(=O)/N=C2/C=CC(=O)c3ccccc32)cc1 | – | active: 28.2 µM |
| c1ccc2c(c1)CC(CN1CCNCC1)O2 (stereo unspecified) | inactive: -8.08% | – |
| Cc1ccc(-n2nc(C(=O)N/N=C/c3cccc(C(F)(F)F)c3)c3ccccc3c2=O)cc1C | – | inconclusive: 4.47 µM [inhibitor, single point] |
| O=C(Nc1sc2c(c1C(=O)NCc1ccco1)CCCC2)c1ccc2c(c1)OCO2 | – | inconclusive: 12.6 µM [inhibitor, partial curve] |
| CC(/C=N/NC(=O)c1n[nH]c2c1CCC2)=C\c1ccccc1 | – | inconclusive: 28.2 µM [inhibitor, single point] |
| O=C(NCCS(=O)(=O)N1CCN(c2ccccc2)CC1)c1ccco1 | – | inconclusive: 31.6 µM [inhibitor, single point] |
| CCOC(=O)N1CCN(c2c(F)cc3[nH]c(=S)[nH]c3c2Br)CC1 | – | active: 28.2 µM |
| O=C(CSc1oc(-c2cccs2)nc1S(=O)(=O)c1ccccc1)NC1CCCCC1 | inactive: -44.9% | – |
| COc1cc(NC(=O)c2cc3c(Cl)nc4ccccc4c3s2)cc(OC)c1OC | – | inconclusive: 3.55 µM [inhibitor, full curve, poor fit] |
| CCN1CCCC1CNC(=O)Cn1cc2c(n1)CCC(C)C2 (stereo unspecified) | – | inconclusive: 5.62 µM [inhibitor, full curve, poor fit] |
| COc1ccc2nc(C)c(C(=O)NN)cc2c1 | – | inconclusive: 39.8 µM [inhibitor, single point] |
| COc1ccc(NC(=O)c2nc3ccccc3s2)cc1 | inactive: -20% | – |
| COc1ccc(CN(Cc2cc3cc4c(cc3[nH]c2=O)OCO4)C(=O)NC2CCCCC2)cc1 | – | inconclusive: 3.16 µM [inhibitor, partial curve, poor fit] |
| Brc1ccc(Nc2nc(-c3cccnc3)cs2)cc1 | – | inconclusive: 3.55 µM [inhibitor, full curve, poor fit] |

| Structure (SMILES) | activity change, negative = inhibition | Potency |
| --- | --- | --- |
| COc1ccc(NC(=O)NNC(=O)c2cc3ccccc3cc2O)cc1 | – | inconclusive: 14.1 µM [inhibitor, partial curve] |
| COc1ccc(CC(=O)NCCS(=O)(=O)N2CCN(c3ccccc3)CC2)cc1OC | – | inconclusive: 15.8 µM [inhibitor, single point] |
| COc1ccc(N2CC(NC(=O)c3cccc4ccccc34)CC2=O)cc1OC (stereo unspecified) | – | inconclusive: 28.2 µM [inhibitor, single point] |
| COc1ccc(N2C(=O)C(Cl)=C(Nc3c(C)n(C)n(-c4ccccc4)c3=O)C2=O)cc1 | – | inconclusive: 2.82 µM [inhibitor, partial curve, poor fit] |
| CN1c2ccccc2C(C)(C)C12C=Nc1c(ccc3ccccc13)O2 (stereo unspecified) | – | active: 25.1 µM |
| O=C1CCC/C(=N\NC(=O)c2ccc(NS(=O)(=O)c3ccc(Br)cc3)cc2)C1 | – | active: 28.2 µM |
| CC(NS(C)(=O)=O)C(c1cccs1)N1CCN(Cc2ccccc2)CC1 (stereo unspecified) | – | inconclusive: 17.8 µM [inhibitor, partial curve, poor fit] |
| Cc1ccnc(NC(=S)NC(=O)c2ccco2)c1 | inactive: -15.4% | – |
| Cc1ccnc(NC(=O)C2CC(=O)N(Cc3ccccc3)C2)c1 (stereo unspecified) | – | inconclusive: 35.5 µM [inhibitor, single point] |
| CCCCN(C(=O)c1ccco1)C1CCS(=O)(=O)C1 (stereo unspecified) | – | inconclusive: 39.8 µM [inhibitor, single point] |
| CN(C)c1nc(-c2ccccn2)nnc1-c1ccccc1 | inactive: -11.6% | – |
| Cc1cc(C)nc(SCC(=O)N/N=C/C=C/c2ccccc2)n1 | – | inconclusive: 31.6 µM [inhibitor, single point] |
| O=C(CCS(=O)(=O)c1ccccc1)N1CCCc2ccccc21 | inactive: 1.55% | – |
| Cn1c(SCc2cccc(C#N)c2)nc2ccccc2c1=O | inactive: -17.9% | – |
| NC(=O)CSc1nnc(-c2cnccn2)n1Cc1ccco1 | inactive: 0.303% | – |
| O=C(CCN1C(=O)C2CCCCC2C1=O)Nc1ccc(Br)cc1F (stereo unspecified) | inactive: -6.04% | – |
| CN(C)S(=O)(=O)c1cc(NC(=O)CSc2nn(-c3ccc(Cl)cc3)c(=S)s2)ccc1Cl | – | active: 14.1 µM |
| N/C(COc1ccc(Cl)cc1)=N\NS(=O)(=O)c1ccccc1 | – | inconclusive: 0.316 µM [inhibitor, full curve, poor fit] |
| Oc1c(Br)cc(Br)cc1CNc1ccc(F)cc1 | – | inconclusive: 28.2 µM [inhibitor, single point] |
| CC1Cc2nc(SCC(=O)N3CCN(c4ccccc4)CC3)n(CCc3ccccc3)c(=O)c2S1 (stereo unspecified) | – | active: 3.55 µM |
| Fc1ccccc1CSc1nc2ncc(Br)cc2[nH]1 | inactive: -26.8% | – |
| O=C(NCc1ccccc1)/C(=C/c1ccc([N+](=O)[O-])cc1)NC(=O)c1ccco1 | inactive: -15.2% | – |
| Cc1oc(-c2ccccc2F)nc1CS(=O)(=O)CC(=O)N1CCOCC1 | – | inconclusive: 5.62 µM [inhibitor, full curve, poor fit] |
